IC50 is the fitted dose that halves viability relative to control wells, and lower means more sensitive; a limit (>, <) means that the fit lies beyond the doses tested. AUC, from the same fit, is the share of area under the viability curve across the 256-fold dose range; values near 1 show little effect. For some of these results: The top dose, if marked as inferred, comes from the curve model; the source does not state it.
Experiments:
Test in all cases: Viability of human cancer cell lines after 72 h of drug (GDSC screen)
Vorinostat = compound: O=C(CCCCCCC(=O)Nc1ccccc1)NO [Vorinostat]; details: top dose 10 µM
Protocol: (§1)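 Human cancer cell lines in 384-well plates, medium with 10% serum, drug for 72 h over a 256-fold dose range (nine 2-fold or five 4-fold steps up to the top dose). Adherent lines were fixed and stained with the nucleic acid dye Syto60, suspension lines read with resazurin; signal relative to control wells, capped at 0 and 100%. One two-parameter sigmoid per drug and line, fitted in a mixed model over all curves with the slope shared within a line.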

Dabrafenib = compound: CC(C)(C)c1nc(-c2cccc(NS(=O)(=O)c3c(F)cccc3F)c2F)c(-c2ccnc(N)n2)s1 [Dabrafenib]; details: top dose 10 µM
Protocol: as §1

Methotrexate = compound: CN(Cc1cnc2nc(N)nc(N)c2n1)c1ccc(C(=O)N[C@@H](CCC(=O)O)C(=O)O)cc1 [Methotrexate]; details: top dose 0.2 µM
Protocol: as §1

SN-38 = compound: CCc1c2c(nc3ccc(O)cc13)-c1cc3c(c(=O)n1C2)COC(=O)[C@]3(O)CC [SN-38]; details: top dose 0.05 µM; top dose inferred
Protocol: as §1

Axitinib = compound: CNC(=O)c1ccccc1Sc1ccc2c(/C=C/c3ccccn3)n[nH]c2c1 [Axitinib]; details: top dose 2 µM
Protocol: as §1

Cell Line | AUC (Vorinostat) | IC50 (Vorinostat) | AUC (Dabrafenib) | IC50 (Dabrafenib) | AUC (Methotrexate) | IC50 (Methotrexate) | AUC (SN-38) | IC50 (SN-38) | AUC (Axitinib) | IC50 (Axitinib)
NB10 (neuroblastoma, adherent) | 0.548 | 841 nM | 0.971 | > 10000 nM | 0.974 | > 200 nM | 0.31 | 0.928 nM | 0.788 | 852 nM
NCI-H596 (lung adenocarcinoma, adherent) | 0.911 | > 10000 nM | 0.978 | > 10000 nM | 0.918 | > 200 nM | 0.973 | > 50 nM | 0.973 | > 2000 nM
L-540 (Hodgkin lymphoma, suspension) | 0.659 | 1630 nM | 0.619 | 1280 nM | 0.416 | 7.55 nM | 0.422 | 1.97 nM | 0.915 | > 2000 nM
SW1783 (glioma, adherent) | 0.912 | > 10000 nM | 0.99 | > 10000 nM | 0.99 | > 200 nM | 0.646 | 7.57 nM | 0.991 | > 2000 nM
EFO-27 (ovary, adherent) | 0.622 | 1480 nM | 0.805 | 6620 nM | 0.872 | > 200 nM | 0.843 | 49.4 nM | 0.972 | > 2000 nM
HCC2218 (breast, suspension) | 0.673 | 2160 nM | 0.981 | > 10000 nM | 0.942 | > 200 nM | 0.913 | > 50 nM | 0.977 | > 2000 nM
ONS-76 (medulloblastoma, adherent) | 0.667 | 1900 nM | 0.699 | 2390 nM | 0.737 | 63.3 nM | 0.489 | 2.92 nM | 0.88 | > 2000 nM
ES6 (Ewing sarcoma, adherent) | 0.693 | 2500 nM | 0.907 | > 10000 nM | 0.891 | > 200 nM | 0.882 | > 50 nM | 0.937 | > 2000 nM
HT-115 (large intestine, adherent) | 0.769 | 3450 nM | 0.96 | > 10000 nM | 0.983 | > 200 nM | 0.802 | 22 nM | 0.971 | > 2000 nM
PCI-30 (head and neck, adherent) | 0.667 | 2040 nM | 0.972 | > 10000 nM | 0.981 | > 200 nM | 0.746 | 19 nM | 0.902 | > 2000 nM
RCC-MF (kidney, adherent) | 0.748 | 4060 nM | 0.861 | > 10000 nM | 0.974 | > 200 nM | 0.664 | 10.3 nM | 0.914 | > 2000 nM
UMC-11 (lung carcinoid, adherent) | 0.799 | 4200 nM | 0.965 | > 10000 nM | 0.987 | > 200 nM | 0.955 | > 50 nM | 0.937 | > 2000 nM
TE-8 (oesophagus, adherent) | 0.713 | 2630 nM | 0.911 | > 10000 nM | 0.982 | > 200 nM | 0.59 | 5.63 nM | 0.978 | > 2000 nM

From the supplement of paper PMC4967469
